“And” between values parts separate entries of the source, which are not always exact repeats. Equal values may be shown once. Among all 370,000 compounds or so, about 1,100 (0.3%) were called active. Inconclusive results, whose numbers are uncertain, are shown with a selection of clear calls. Calls follow the shape of the dose curve; as a rule, active = well fitted activation curve with a large enough effect; inconclusive = small, poorly fitted or top-dose-only effect; inactive = flat fitted curve, though single readings scatter. Potencies of inconclusive entries are doubtful fits and often do not repeat. A structure can be active in one record and inactive in another.
biological target: Relaxin receptor 1 (Homo sapiens) (UniProt Q9HBX9); test: qHTS Assay for Agonists of the Relaxin Receptor RXFP1; details: HEK293T-RXFP1 cAMP TR-FRET, 30 min; series mostly up to 57.5 µM; also: nearly all actives have a fitted effect of over 60% in size
Method in brief: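 HEK293T cells stably expressing RXFP1 were pretreated with the PDE4 inhibitor Ro 20174, exposed to compounds for 30 min at 37C, lysed, and cAMP was read by TR-FRET. Data normalized to buffer (basal) and 29 nM porcine relaxin (100%).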
Potency is read from the fitted curve at half-maximal effect; tags tell the direction and shape of the fitted curve.

Chain of UniProt Q9HBX9 (Q9HBX9 whole entry, looked up): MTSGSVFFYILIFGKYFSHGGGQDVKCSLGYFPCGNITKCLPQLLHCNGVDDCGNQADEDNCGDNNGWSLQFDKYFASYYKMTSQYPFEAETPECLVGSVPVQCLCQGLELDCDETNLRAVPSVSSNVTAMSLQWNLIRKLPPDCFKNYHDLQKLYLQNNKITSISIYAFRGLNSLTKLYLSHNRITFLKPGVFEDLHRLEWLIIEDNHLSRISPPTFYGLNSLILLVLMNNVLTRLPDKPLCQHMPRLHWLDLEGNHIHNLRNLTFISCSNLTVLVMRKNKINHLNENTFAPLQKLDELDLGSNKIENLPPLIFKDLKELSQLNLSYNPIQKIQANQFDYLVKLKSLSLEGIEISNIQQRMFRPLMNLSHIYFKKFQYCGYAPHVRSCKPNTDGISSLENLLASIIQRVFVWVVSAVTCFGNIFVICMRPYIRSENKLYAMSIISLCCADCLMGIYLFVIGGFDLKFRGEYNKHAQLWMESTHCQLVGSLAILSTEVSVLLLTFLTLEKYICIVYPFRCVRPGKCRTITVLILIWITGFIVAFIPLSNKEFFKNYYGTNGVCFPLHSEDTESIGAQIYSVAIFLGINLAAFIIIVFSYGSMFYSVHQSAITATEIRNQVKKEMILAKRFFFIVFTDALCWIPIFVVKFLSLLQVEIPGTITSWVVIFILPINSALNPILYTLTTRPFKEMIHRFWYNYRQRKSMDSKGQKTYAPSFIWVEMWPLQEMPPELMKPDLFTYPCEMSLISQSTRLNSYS

Potency, active:
COc1ccc(-n2nc(C(=O)NCC(=O)NCCCN3CCOCC3)c3ccccc3c2=O)cc1 15.8 µM
Cc1ccc(NC(=O)Cn2cc(C(=O)C3CC3)c3ccccc32)cc1 10 µM
CCn1c(=S)[nH]c2c(c1=O)C(C)(C)Cc1ccccc1-2 15.8 µM
COCCCn1c(=S)[nH]c2sc3c(c2c1=O)CCCS3 15.8 µM

Potency, inactive:
Cc1ccc(C)c(N2CCN(C(=O)C3CCC(CNS(=O)(=O)c4ccc(Br)s4)CC3)CC2)c1 (stereo not drawn)
N#C/C(=C\c1ccc(N2CCCCC2)o1)C(=O)Nc1cccc(Br)c1
COc1ccccc1C(=O)Nc1ccnn1C1CCN(Cc2ccccc2OCCO)CC1
Cc1ccc(C)c(OC(C)C(=O)Nc2ccc(S(=O)(=O)Nc3nccs3)cc2)c1 (stereo not drawn)
COCCn1nnnc1C(C(C)C)N(Cc1ccccc1)Cc1cc2cc(OC)ccc2[nH]c1=O (stereo not drawn)
COc1ccc(-c2[nH]ncc2CN2CCN(c3ccc(F)cc3)CC2)cc1
CCCNC(=O)c1csc2c1CCCCC2
CCCNC(=O)Nc1cc(OCC)c(N2CCOCC2)cc1OCC
Cc1cccc(-c2nc(CCNC(=O)c3ccccc3Br)cs2)c1
O=C(Nc1nc2ccccc2[nH]1)c1ccc(Cl)cc1
CN1CCc2c(sc3c2c(=O)n(-c2ccccc2)c2nnc(SCc4ccc(Cl)cc4)n32)C1
O=C(Nc1ccc2[nH]ncc2c1)c1ccccc1Cl
COC(=O)c1ccccc1NC(=O)c1ccccc1OC
CCOC(=O)C1CCN(C(=O)c2cc(COc3ccc(OC)c4ccccc34)on2)CC1
CCOc1ccc(N(C(=O)CC(C)C)S(=O)(=O)c2ccc3c(c2)oc(=O)n3C)cc1
CC(C)SCCCCOc1ccc2ccccc2c1
O=C(NC(NC(=S)Nc1c(Cl)cccc1Cl)C(Cl)(Cl)Cl)c1cccc([N+](=O)[O-])c1 (stereo not drawn)
CCOC(=O)c1nc(C)sc1-c1ccnn1S(=O)(=O)c1cccc(Cl)c1
C/C(=N\Nc1cc(C)nc(-c2ccccc2O)n1)c1ccccc1
Cc1cccc(N2C(=O)N(CC(=O)C(C)(C)C)c3ccccc3S2(=O)=O)c1C
O=C(c1cccc(NS(=O)(=O)c2ccccc2)c1)N1CCCC1
CCn1c(=O)cc(SCC(=O)NCc2ccc(F)cc2Cl)c2ccccc21
O=S(=O)(c1ccc(NC(=S)N2CCN(c3ccccc3F)CC2)cc1)N1CCOCC1
Cc1cccc(C)c1Nc1c(-c2ccccc2F)nc2cccc(C)n12
CCN(CC)CCNC(=O)c1c(C)oc2ncn(C)c(=O)c12
COc1cccc(NC(=O)CSc2nc3ccc(NC(=O)c4cccs4)cc3s2)c1
N#Cc1cc(-c2ccccc2)cnc1Sc1ccc(Cl)cc1
O=C1CCCC2=C1C(c1ccc(Cl)cc1)N1C(=O)CCSC1=N2 (stereo not drawn)
Cc1ccc(OCCSc2nc(NC(C)C)nc(NC(C)C)n2)cc1
CCc1ccc(CNC(=O)c2ccc(NC(=O)N3CC(C)Sc4ccccc43)cc2)cc1 (stereo not drawn)
CCOc1ccc(-c2cc(C(=O)Oc3ccc(C#N)cc3)no2)cc1

Potency, inconclusive:
Cc1ccc(C(=O)Nc2nnc(S(=O)(=O)N(C)Cc3ccc(F)cc3)s2)cc1 3.16 µM [activator, partial curve]
CCOc1ccc(NC(=O)Cn2cc(C(=O)c3ccc(OC)cc3)c(=O)c3cc4c(cc32)OCO4)cc1 39.8 µM [activator, single point]
CCN(CC)CCCNC(=O)Cn1cnc2ccc(S(=O)(=O)N3CCC(C)CC3)cc2c1=O 25.1 µM [activator, partial curve]
COc1ccc(CCNC(=O)CN2C(=O)COc3ccc(C)cc32)cc1OC 28.2 µM [activator, single point]
Cc1ccc(CNS(=O)(=O)c2cc(F)ccc2CN2C(=O)c3cccnc3C2=O)o1 15.8 µM [activator, partial curve]
COc1ccc(OC)c(CNC(=O)C2CCN(C(=O)N(C)C)CC2)c1 5.62 µM [activator, full curve]
CCOCCCNC(=O)c1cc2c(=O)n3ccccc3nc2s1 28.2 µM [activator, partial curve] and 25.1 µM [activator, partial curve]
Nc1nc(Cl)nc2c1ncn2[C@H]1C[C@H](O)[C@@H](CO)O1 22.4 µM [activator, partial curve] and 15.8 µM [activator, partial curve]
CC(=O)c1ccc(N2CCN(S(=O)(=O)c3ccc4c(c3)NC(=O)CC(=O)N4)CC2)cc1 39.8 µM [activator, single point]
Cc1c(C(=O)OC2CCCCC2)[nH]c2c1C(=O)CC(c1ccccc1Cl)C2 (stereo not drawn) 39.8 µM [activator, single point]
Cc1ccc(OCC(=O)NC(=S)Nc2ccc3c4c(cccc24)CC3)cc1 7.94 µM [activator, full curve]
CC(C)Oc1ccc(/C(O)=C2/C(=O)C(=O)N(CCN3CCOCC3)C2c2ccccc2)cc1 (stereo not drawn) 17.8 µM [activator, partial curve]
O=C(Nc1ccc(Cl)cc1F)c1ccc(-n2cncn2)cc1 39.8 µM [activator, single point]
COc1ccc(Br)cc1C(=O)Nc1cccc(C)c1C 31.6 µM [activator, single point]
COc1cccc(C2/C(=C(/O)c3ccc4c(c3)CC(C)O4)C(=O)C(=O)N2c2nnc(C)s2)c1 (stereo not drawn) 25.1 µM [activator, partial curve]
CCCCNC(=O)c1nn(-c2ccc(C)cc2)c(=O)c2c1c1ccccc1n2C 35.5 µM [activator, single point]
COc1ccc(-c2nc3c4ccccc4ccn3c2C=O)cc1 39.8 µM [activator, single point]
CCn1cc(C(=O)OCC(=O)Nc2cccc(Cl)c2Cl)c(=O)c2ccc(C)nc21 28.2 µM [activator, single point]
Cc1nc2c(sc3nc4c(cc32)COC(C)(C)C4)c(=O)n1CC(=O)NCc1ccco1 35.5 µM [activator, single point]
CCOC(=O)CNC(=O)Cn1cnc2c(nnn2-c2ccccc2)c1=O 25.1 µM [activator, partial curve]
CCOc1ccc(CNC(=O)CCc2cn(C)c3ccccc23)cc1OC 39.8 µM [activator, single point]
Cc1cc(=O)[nH]c(SCc2nc3ncccn3c2Br)n1 25.1 µM [activator, partial curve]
Cc1nc(C)c(-c2ccc(SCC(=O)Nc3ccc(C)c(F)c3)nn2)s1 31.6 µM [activator, partial curve]
COc1ccc(C2/C(=C(\O)c3ccc4c(c3)OCCO4)C(=O)C(=O)N2Cc2cccnc2)cc1 (stereo not drawn) 31.6 µM [activator, partial curve]
COC(=O)c1ccc(C2C(C(=O)c3cc4ccccc4o3)=C(O)C(=O)N2CCCN(C)C)cc1 (stereo not drawn) 28.2 µM [activator, partial curve]
Cc1ccc(CNc2nc3ccccc3c3nc(-c4cccc(C)c4)nn23)cc1 39.8 µM [activator, single point]
O=C(NCCc1ccc(Cl)cc1)c1ccc(Cn2c(=O)c3cccn3c3cccnc32)cc1 31.6 µM [activator, single point]
O=c1c2c3c(sc2[nH]c(=S)n1Cc1ccco1)CCC3 15.8 µM [activator, partial curve]
CCOc1ccc(C(=O)c2cn(CC(=O)Nc3ccc(OC)cc3)c3cc4c(cc3c2=O)OCCO4)cc1 28.2 µM [activator, single point]
CCc1cc2cccc(C)c2nc1SCC(=O)NC1CCCC1 31.6 µM [activator, single point]
O=C(O)C1CCN(c2nc(-c3ccccc3)c3cc(Br)ccc3n2)CC1 15.8 µM [activator, partial curve]
COc1ccc(-n2cc(-c3ccc(Cl)cc3)[nH]c2=S)cc1 39.8 µM [activator, single point]
Cc1ccccc1C(=O)Nc1ccc(OCc2cc(=O)n3cccc(C)c3n2)cc1 35.5 µM [activator, single point]
Cc1cccc(-n2c(=S)[nH]c3sc4c(c3c2=O)CCc2ccccc2-4)c1 25.1 µM [activator, partial curve]
COc1ccc2[nH]c(C(=O)Nc3ccc(F)cc3Br)cc2c1 35.5 µM [activator, single point]
CCOC(=O)c1sc(=NC(=O)c2cccc(C)c2)n(C)c1C 31.6 µM [activator, single point]
CCOC(=O)Cc1csc(NC(=O)Cn2cnc3c2c(=O)n(C)c(=O)n3C)n1 25.1 µM [activator, partial curve]
COc1ccc(CN2C(=O)c3cccnc3C2=O)cc1S(=O)(=O)NC1CCCCC1 15.8 µM [activator, partial curve]
